Test results published in article PMC4336329 (PLoS ONE, 2015).
In all, about 310,000 compounds went through this assay and about 2,200 (0.71%) showed an effect of 50% or more. The effect is printed as a negative number. This is one part of the list.

Biological target: human ether-à-go-go-related gene (hERG) potassium channel (human, UniProt Q12809)
Test: primary screen, population patch clamp on CHO cells stably expressing hERG

Sequence of human ether-à-go-go-related gene (hERG) potassium channel (Q12809 whole entry, looked up): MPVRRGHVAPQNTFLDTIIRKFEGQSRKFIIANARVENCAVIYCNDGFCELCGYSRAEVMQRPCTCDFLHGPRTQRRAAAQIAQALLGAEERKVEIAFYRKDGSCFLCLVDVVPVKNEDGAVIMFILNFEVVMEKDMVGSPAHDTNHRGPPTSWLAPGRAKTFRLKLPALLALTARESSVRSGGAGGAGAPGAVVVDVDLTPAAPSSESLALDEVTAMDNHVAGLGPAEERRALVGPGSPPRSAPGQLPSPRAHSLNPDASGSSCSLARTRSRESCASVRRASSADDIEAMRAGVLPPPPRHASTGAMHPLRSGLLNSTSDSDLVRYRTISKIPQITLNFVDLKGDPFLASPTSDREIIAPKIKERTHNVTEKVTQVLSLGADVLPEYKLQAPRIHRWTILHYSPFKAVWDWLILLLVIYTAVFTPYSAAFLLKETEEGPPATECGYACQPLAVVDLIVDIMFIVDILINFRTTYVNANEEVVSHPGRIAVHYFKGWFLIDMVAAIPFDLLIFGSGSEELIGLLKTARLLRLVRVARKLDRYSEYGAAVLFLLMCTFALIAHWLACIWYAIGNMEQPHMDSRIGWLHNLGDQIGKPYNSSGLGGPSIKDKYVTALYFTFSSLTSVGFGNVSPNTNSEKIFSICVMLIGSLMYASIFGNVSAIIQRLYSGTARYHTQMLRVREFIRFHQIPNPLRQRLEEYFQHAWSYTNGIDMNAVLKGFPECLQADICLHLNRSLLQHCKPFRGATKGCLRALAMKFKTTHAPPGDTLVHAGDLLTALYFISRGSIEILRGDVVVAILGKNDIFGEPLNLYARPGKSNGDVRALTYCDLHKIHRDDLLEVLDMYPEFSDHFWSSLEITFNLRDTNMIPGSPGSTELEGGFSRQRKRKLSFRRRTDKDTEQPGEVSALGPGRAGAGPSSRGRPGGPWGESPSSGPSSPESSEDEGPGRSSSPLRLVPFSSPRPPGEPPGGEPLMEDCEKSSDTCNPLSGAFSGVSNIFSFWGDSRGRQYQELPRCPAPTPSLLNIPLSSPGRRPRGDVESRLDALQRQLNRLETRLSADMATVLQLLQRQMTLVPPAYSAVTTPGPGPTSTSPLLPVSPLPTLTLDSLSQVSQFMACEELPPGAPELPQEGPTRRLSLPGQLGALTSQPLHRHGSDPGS

Row | SMILES | hERG current change (%, negative = inhibition) at 1uM [%]
1 | CCC(C)(C)NC(=O)c1ccc2c(c1)N(CC(=O)NC1CCCC1)C(=O)C(C)(C)O2 | 17.3
2 | COC(=O)c1cc(S(=O)(=O)N2CCOCC2)c(Cl)cc1N1CCOCC1 | -5.16
3 | COc1ccc(NC(=O)CCC(=O)OCc2ccc(Br)cc2)cc1 | 4.54
4 | COCCCN1C2=C(C(=O)CC(C)(C)C2)C(c2ccc(O)c(OC)c2)C2=C1CC(C)(C)CC2=O | 22.5
5 | Cc1cc(C)cc(-n2c(C)cc(C=C(C#N)C#N)c2C)c1 | 7.76
6 | COc1ccc(S(=O)(=O)Nc2nc3ccccc3nc2NCc2ccc3c(c2)OCO3)cc1 | 21.7
7 | CCC(=O)n1nc(-c2ccccc2)nc1N | 15.3
8 | CCOc1ccc(NC(=O)CN(C)C(=O)CCCOc2ccc(Br)cc2)cc1OCC | 8.21
9 | CC1CCC(NC(=O)CN2C(=O)NC(C)(C)C2=O)CC1 (stereo not drawn) | 11.9
10 | O=C1C2C3C=CC(C3=C(c3ccccc3)c3ccccc3)C2C(=O)N1Cc1ccccc1 (stereo not drawn) | 17.2
11 | Cc1cc(NS(=O)(=O)c2ccc(Br)s2)no1 | 18.9
12 | COc1ccc(CCN2C(=O)CC(N3CCN(c4ccccn4)CC3)C2=O)cc1OC (stereo not drawn) | 14.1
13 | COc1ccc(OC)c(S(=O)(=O)Nc2ccccc2SC)c1 | 0.168
14 | CS/C(=N\S(=O)(=O)c1ccc(Cl)cc1)c1ccccc1 | 9.93
15 | O=C(NCCN1CCN(C(=O)c2ccc([N+](=O)[O-])cc2)CC1)C(=O)Nc1ccc(F)cc1 | -84.3
16 | O=C(c1ccco1)N1CCN(S(=O)(=O)c2ccc(Cl)s2)CC1 | 2.83
17 | Cc1cc(-c2nnc(SCC(=O)Nc3nc(-c4ccccc4)cs3)o2)no1 | -3.9
18 | CCOc1ccc(OCCCC(=O)ON=C(N)c2ccccc2C)cc1 | 2.24
19 | CCOC(=O)CSc1nnc(-c2cccnc2)o1 | 9.45
20 | CC(NC(=O)CC1CCCCC1)c1ccccc1 (stereo not drawn) | 15.7
21 | COc1ccc(C)cc1NC(=O)CN1CCN(S(=O)(=O)c2ccc(F)cc2)CC1 | 6.68
22 | CC[n+]1c(/C=C/c2cc([N+](=O)[O-])ccc2O)ccc2ccccc21.[I-] | 6.39
23 | CCOc1ccc(NC(=O)CSc2nc3ccccc3c(=O)n2CCNC(C)=O)cc1 | -8.82
24 | O=C(COC(=O)Cc1ccc(F)cc1)NC(=O)NC1CCCC1 | 11.7
25 | COC(=O)C1=C(CS(=O)(=O)c2ccc(Cl)cc2)NC(=O)NC1c1ccc(O)cc1 (stereo not drawn) | 17
26 | Cc1ccc(C2=NO[C@@](CC(=O)O)(C(=O)Nc3ccc4c(c3)OCCO4)C2)cc1 | 11
27 | CCC(C)NC(=O)[C@H]1N2C(=O)c3c(ccc(OC)c3OC)C2SC1(C)C (stereo partly drawn) | 12.2

Row | SMILES | hERG current change (%, negative = inhibition) at 1uM [%]
28 | CCOC(=O)c1nnc(-c2ccccc2)nc1Oc1ccccc1Cl | 12.9
29 | CC(C)COc1nc2ccccc2c(=O)n1OCC(=O)O | 16
30 | Cc1cc(C(C)(C)C)nc2[nH]n(-c3ccccc3)c(=O)c12 | 7.76
31 | Cc1cccc(Cl)c1OCCCN1CCOCC1.O=C(O)C(=O)O | 11.9
32 | O=C(c1ccccc1-c1nc(-c2ccccc2)no1)N1CCOCC1 | 16
33 | Cc1ccccc1NC(=O)OCc1cccnc1Sc1ccc(Cl)cc1 | 9.66
34 | CC1CCCCC1NC(=O)CN1C(=O)NC(C)(c2cc(F)ccc2F)C1=O (stereo not drawn) | 15.6
35 | Nn1c(SCC(=O)N2CCCC2=O)nnc1-c1cccs1 | -2.11
36 | CS(=O)(=O)c1ccccc1C(=O)Nc1ccc(-c2nc3ccccc3[nH]2)cc1 | 7.54
37 | CC(=O)NCCC(=O)N(C)CC1CCN(CCc2cccc(C(F)(F)F)c2)CC1 | 12.5
38 | CCN(CC)C(=O)C1CCCN(C/C=C/c2ccccc2[N+](=O)[O-])C1 (stereo not drawn) | -6.08
39 | CCOC(=O)CNC(=O)CSc1nc(Cc2cccs2)nc2ccccc12 | -1.36
40 | Cc1ccc(-n2c(SCC(=O)N3Cc4ccccc4CC3C(=O)O)nnc2-c2cccnc2)c(C)c1 (stereo not drawn) | -3.66
41 | COc1ccc(CC(NC(C)=O)C(=O)NC2CCN(c3nc(C)cc(C)c3C#N)CC2)cc1 (stereo not drawn) | 5.46
42 | O=C(Oc1cccc(OC(=O)N2CCCCC2)c1)N1CCCCC1 | 12.3
43 | Cc1ccc(N(C(=O)c2ccncc2)C2C=CS(=O)(=O)C2)cc1 (stereo not drawn) | 6.32
44 | O=C(CN(C(=O)Cn1nnc(-c2cccs2)n1)c1cnc2ccccc2c1)NCC1CCCO1 (stereo not drawn) | 5.92
45 | COc1ccc(-c2c(C#N)c(N)nc3sc(C(=O)c4ccc(C)cc4)c(N)c23)cc1 | 16
46 | O=C1C(=O)N(CCN2CCOCC2)C(c2cccc(Cl)c2)/C1=C(\O)c1ccc2c(c1)OCCO2 (stereo not drawn) | 2.15
47 | C[N+](C)(C)CCNC(=O)c1cc[n+](Cc2ccccc2)c(/C=N/O)c1.[I-] | 20.6
48 | O=C(NN1C(=O)C2C3C=CC(O3)C2C1=O)c1ccncc1 (stereo not drawn) | 11.2
49 | COC(=O)c1c(C)[nH]c(C(=O)COC(=O)CCNS(=O)(=O)c2cccc(C(F)(F)F)c2)c1C | -0.944
50 | COC(=O)c1cccc(NC(=O)c2ccc3c(c2)C(=O)N(Cc2cccnc2)C3=O)c1C | 22.4
51 | CCC1Nc2ncnc(N3CCOCC3)c2N(Cc2ccc(C)cc2)C1=O.O=C(O)C(F)(F)F (stereo not drawn) | 8.63
52 | O=C(c1cccc(Oc2ccc([N+](=O)[O-])cc2Cl)c1)N1CCCCC1 | 9.05
53 | CCOC(=O)N1CCC(NC(=O)C(CC(C)C)NC(=O)C2CCC(C)CC2)CC1 (stereo not drawn) | 12.7
54 | COCCNC(=O)c1cc2c(s1)-c1ccc(Cl)cc1SC2 | 8.48
